In the antibiotic and cytotoxicity screens of Wong et al. (2023):
This is one part of the list.

Tests used:
HSkMC = human skeletal muscle cells; assay: cytotoxicity call (relative viability < 0.9); conditions: 10 µM
HepG2 = assay: cytotoxicity call (relative viability < 0.9); conditions: 10 µM
S. aureus RN4220 = assay: growth inhibition call (relative growth <= 0.2); conditions: 50 µM

| SMILES | cytotoxicity call (HSkMC) | cytotoxicity call (HepG2) | growth inhibition call (S. aureus RN4220) |
| --- | --- | --- | --- |
| C[C@H](CO)N1C[C@H](C)[C@H](CN(C)Cc2ccc(Cl)c(Cl)c2)Oc2c(NC(=O)CCCCCC(=O)Nc3ccccc3N)cccc2C1=O | inactive | inactive | inactive |
| O=C(Cn1ccnc1[N+](=O)[O-])NCCO | inactive | inactive | inactive |
| COCCNC(=O)C[C@@H]1C[C@H]2c3cc(NS(C)(=O)=O)ccc3O[C@H]2[C@H](CO)O1 | inactive | inactive | inactive |
| Cc1ccc(S(=O)(=O)N(C)C[C@H]2Oc3ccc(NS(=O)(=O)c4ccccc4)cc3C(=O)N([C@@H](C)CO)C[C@H]2C)cc1 | inactive | inactive | inactive |
| Cc1noc(C)c1NC(=O)Nc1ccc2c(c1)CC(=O)N([C@H](C)CO)C[C@H](C)[C@@H](CN(C)S(=O)(=O)c1cn(C)cn1)O2 | inactive | inactive | inactive |
| O=C1N[C@H]2[C@@H]1[C@@H]1C=C[C@H]2C1 | inactive | inactive | inactive |
| COc1ccc(S(=O)(=O)N(C)C[C@@H]2Oc3c(NC(=O)C4CCOCC4)cccc3C(=O)N([C@@H](C)CO)C[C@@H]2C)cc1 | inactive | inactive | inactive |
| Cc1ccc(S(=O)(=O)Nc2cccc3c2O[C@@H](CN(C)S(C)(=O)=O)[C@@H](C)CN([C@@H](C)CO)C3=O)cc1 | inactive | inactive | inactive |
| C[C@@H]1CN([C@H](C)CO)C(=O)c2cc(NC(=O)c3ccncc3)ccc2O[C@@H](C)CCCCO[C@H]1CN(C)C(=O)Nc1ccc(C(F)(F)F)cc1 | inactive | inactive | inactive |
| O=C(C[C@@H]1CC[C@@H]2[C@H](COC[C@H](O)CN2Cc2ccccc2F)O1)N[C@@H]1CCN(Cc2ccccc2)C1 | inactive | inactive | inactive |
| CN(C)C(=O)c1ccc(-c2cccc(-c3nc(C(=O)NC4CCC4)cc4c3[C@H](CCO)N([S@@](=O)C(C)(C)C)C4)c2)cc1 | inactive | inactive | inactive |
| COc1ccc(S(=O)(=O)Nc2ccc3c(c2)C(=O)N([C@@H](C)CO)C[C@@H](C)[C@H](CN(C)C(=O)Nc2ccc(F)cc2)OCCCC[C@@H](C)O3)cc1 | inactive | inactive | inactive |
| C[C@H](CO)N1C[C@H](C)[C@@H](CN(C)S(=O)(=O)c2cn(C)cn2)Oc2c(NC(=O)CCCCCC(=O)Nc3ccccc3N)cccc2C1=O | inactive | inactive | inactive |
| O=C(C[C@H]1C[C@H]2c3cc(NC(=O)c4ccc5c(c4)OCO5)ccc3O[C@H]2[C@H](CO)O1)NCCc1ccccc1 | inactive | inactive | inactive |
| Cc1noc(C)c1NC(=O)Nc1ccc2c(c1)CC(=O)N([C@@H](C)CO)C[C@H](C)[C@H](CN(C)S(=O)(=O)c1ccccc1)O2 | inactive | inactive | inactive |
| C[C@@H]1CN([C@@H](C)CO)C(=O)c2cc(NC(=O)C3CCCCC3)ccc2O[C@@H](C)CCCCO[C@@H]1CN(C)Cc1ccccc1 | inactive | inactive | inactive |
| C[C@@H]1CN([C@H](C)CO)C(=O)c2cccc(NS(=O)(=O)c3ccc(Cl)cc3)c2O[C@@H]1CN(C)C(=O)Nc1cccc2ccccc12 | inactive | inactive | inactive |
| C[C@@H]1CN([C@H](C)CO)C(=O)c2cc(NC(=O)CCC(F)(F)F)ccc2O[C@H]1CN(C)S(=O)(=O)c1cn(C)cn1 | inactive | inactive | inactive |
| C[C@H](CO)N1C[C@H](C)[C@H](CN(C)C(=O)Nc2ccc(C(F)(F)F)cc2)Oc2c(NS(=O)(=O)c3ccc(Cl)cc3)cccc2C1=O | active | active | inactive |
| C[C@@H]1CCCCO[C@@H](CN(C)CC2CC2)[C@H](C)CN([C@@H](C)CO)C(=O)c2cc(NS(C)(=O)=O)ccc2O1 | inactive | inactive | inactive |
| C[C@@H]1CN([C@@H](C)CO)S(=O)(=O)c2ccc(C#CCN(C)C)cc2O[C@H]1CN(C)Cc1ccncc1 | inactive | inactive | inactive |
| C[C@@H]1CN([C@@H](C)CO)S(=O)(=O)c2ccc(C#C[C@@H](C)O)cc2O[C@H]1CN(C)C(=O)C1CCCCC1 | inactive | inactive | inactive |
| COCC(=O)N1C[C@H](C)[C@H](OC)CN(C)C(=O)c2cc(NC(=O)c3cc(C)on3)ccc2OC[C@H]1C | inactive | inactive | inactive |
| C[C@@H]1CN([C@@H](C)CO)C(=O)c2cc(NC(=O)Cc3ccccc3)ccc2O[C@@H](C)CCCCO[C@H]1CN(C)CC1CCCCC1 | inactive | active | inactive |
| COC(=O)[C@H](Cc1ccccc1)N1CC2=CCCC=C[C@H]2[C@@H]1[C@@H](O)CCn1cc(CCC(=O)NO)nn1 | inactive | inactive | inactive |
| COc1cccc(-c2cnc3c(c2)C(=O)N([C@H](C)CO)C[C@H](C)[C@H](CN(C)S(=O)(=O)c2cn(C)cn2)O3)c1 | inactive | inactive | inactive |
| Cc1noc(C)c1NC(=O)Nc1ccc2c(c1)C(=O)N([C@H](C)CO)C[C@@H](C)[C@H](CN(C)Cc1ccc3c(c1)OCO3)OCCCC[C@@H](C)O2 | inactive | inactive | inactive |

| SMILES | cytotoxicity call (HSkMC) | cytotoxicity call (HepG2) | growth inhibition call (S. aureus RN4220) |
| --- | --- | --- | --- |
| Cc1noc(C)c1NC(=O)Nc1ccc2c(c1)C(=O)N([C@@H](C)CO)C[C@@H](C)[C@H](CN(C)Cc1ccc(Oc3ccccc3)cc1)O2 | inactive | inactive | inactive |
| c1ccc2c(c1)Cn1nnnc1-2 | inactive | inactive | inactive |
| Cc1cncc2cccc(S(=O)(=O)N[C@H]3CN[C@H](COC(=O)NCCOCCOCCN)C3)c12 | inactive | inactive | inactive |
| C[C@@H]1CCCCO[C@@H](CN(C)S(=O)(=O)c2cccs2)[C@H](C)CN([C@H](C)CO)C(=O)c2cc(NS(=O)(=O)c3cn(C)cn3)ccc2O1 | inactive | inactive | inactive |
| CC(C)(C)OC(=O)CC[C@]12N=C(c3ccc(OCCCO)cc3)O[C@H]1c1ccccc1N(Cc1ccccc1)C2=O | inactive | inactive | inactive |
| Cc1noc(C)c1S(=O)(=O)Nc1ccc2c(c1)C(=O)N([C@@H](C)CO)C[C@@H](C)[C@@H](CN(C)C(=O)Nc1ccccc1)O2 | inactive | inactive | inactive |
| COc1ccc(NC(=O)Nc2ccc3c(c2)CC(=O)N([C@@H](C)CO)C[C@@H](C)[C@@H](CN(C)Cc2ccc(C(=O)Nc4ccccc4N)cc2)O3)cc1 | inactive | inactive | inactive |
| COCC(=O)N(C)C[C@H]1Oc2cc(-c3ccc(C#N)cc3)ccc2S(=O)(=O)N([C@@H](C)CO)C[C@@H]1C | inactive | inactive | inactive |
| CNC[C@@H]1OCCCC[C@@H](C)Oc2ccc(NS(=O)(=O)c3cn(C)cn3)cc2C(=O)N([C@@H](C)CO)C[C@@H]1C | inactive | inactive | inactive |
| Cc1ccc(S(=O)(=O)N[C@H]2CC[C@@H](CCNC(=O)CN3CCOCC3)O[C@H]2CO)cc1 | inactive | inactive | inactive |
| CCO[C@H]1[C@H]2CC[C@@H]1N(C(=O)CS(C)(=O)=O)CCO2 | inactive | inactive | inactive |
| COc1ccc(S(=O)(=O)Nc2ccc3c(c2)C(=O)N([C@H](C)CO)C[C@@H](C)[C@@H](CN(C)C(=O)NC2CCCCC2)OCCCC[C@@H](C)O3)cc1 | inactive | inactive | inactive |
| C[C@@H]1CN([C@@H](C)CO)C(=O)Cc2cc(NC(=O)CCN3CCOCC3)ccc2O[C@H]1CN(C)C(=O)Nc1ccccc1 | inactive | inactive | inactive |
| Cc1ccc(S(=O)(=O)N(C)C[C@@H]2OCCCC[C@@H](C)Oc3ccc(NS(=O)(=O)c4ccc(F)cc4)cc3C(=O)N([C@H](C)CO)C[C@H]2C)cc1 | active | active | inactive |
| C[C@@H]1CN([C@@H](C)CO)C(=O)c2cc(NC(=O)Nc3ccc(F)cc3)ccc2O[C@@H](C)CCCCO[C@@H]1CN(C)Cc1ccncc1 | inactive | inactive | inactive |
| C[C@H]1CN([C@@H](C)CO)C(=O)c2cc(NC(=O)Cc3ccccc3)ccc2O[C@@H]1CN(C)Cc1ccc(Cl)c(Cl)c1 | inactive | inactive | inactive |
| OCCN1C[C@@H](O)[C@@H](O)[C@@H](O)[C@@H]1CO | inactive | inactive | inactive |
| CO[C@@H]1CN(C)C(=O)c2cc(NC(=O)Nc3ccc(Cl)cc3)ccc2OC[C@@H](C)N(C(=O)Nc2c(C)noc2C)C[C@@H]1C | inactive | inactive | inactive |
| C[C@H]1CN([C@@H](C)CO)C(=O)Cc2cc(NS(=O)(=O)c3cn(C)cn3)ccc2O[C@@H]1CN(C)Cc1ccc(C(=O)O)cc1 | inactive | inactive | inactive |
| COc1ccc(CN(C)C[C@@H]2Oc3c(NS(C)(=O)=O)cccc3C(=O)N([C@@H](C)CO)C[C@H]2C)cc1 | inactive | inactive | inactive |
| O=C1OC(c2ccc(O)cc2)(c2ccc(O)cc2)c2ccccc21 | inactive | inactive | inactive |
| CC(C)NC(=O)N(C)C[C@H]1Oc2ccc(NS(=O)(=O)c3ccccc3)cc2CC(=O)N([C@@H](C)CO)C[C@H]1C | inactive | inactive | inactive |
| C[C@@H]1CN([C@@H](C)CO)C(=O)c2cc(NC(=O)Cn3cnnn3)ccc2O[C@@H]1CN(C)S(=O)(=O)c1ccc(Cl)cc1 | inactive | inactive | inactive |
| C[C@H](CO)N1C[C@H](C)[C@H](CN(C)C(=O)Cc2ccccc2)OCCCC[C@H](C)Oc2ccc(NC(=O)Nc3ccc(F)cc3)cc2C1=O | inactive | inactive | inactive |
| COc1ccc(NC(=O)Nc2ccc3c(c2)C(=O)N([C@@H](C)CO)C[C@@H](C)[C@@H](CN(C)C(=O)Nc2ccc(OC)cc2)OCCCC[C@H](C)O3)cc1 | inactive | inactive | inactive |
| C[C@H]1CN([C@@H](C)CO)C(=O)c2cccc(NC(=O)c3cnccn3)c2O[C@H]1CN(C)Cc1ccc(C(=O)O)cc1 | inactive | inactive | inactive |
